About 340 (0.77%) of roughly 44,000 compounds were called active. Another 5% or so got no clear call; they are omitted. Calls follow the shape of the dose curve; as a rule, active = well fitted inhibition curve with a large enough effect; inconclusive = small, poorly fitted or top-dose-only effect; inactive = flat fitted curve, though single readings scatter. The list shows a part of the results.
Test: Acumen qHTS Assay for Inhibitors of the mTORC1 Signaling Pathway in MEF (Tsc2-/-, p53-/-) Cells: Sytravon;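 also: plate controls were DMSO for no effect and rapamycin for full effect; nearly all actives have a fitted effect of over 50% in size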
Details: phospho-rpS6 immunofluorescence/PI, 24 h; series mostly up to 38.3 µM; activity change, negative = inhibition: at the top concentration
Outline: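 Read-out: phospho-S6 Alexa-488 intensity over PI intensity per well, scored as % active cells using thresholds from rapamycin (7.5 nM) and DMSO controls. Tsc2-/-, p53-/- MEFs exposed to compound for 24 h; PI cell count recorded as viability.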

Activity change, negative = inhibition, inactive:
COC(=O)CSc1ncc2c(n1)-c1ccccc1N(Cc1cccc(F)c1)S2(=O)=O -5.16%
O=C(Cn1c(=O)oc2cc(S(=O)(=O)N3CCCC3)ccc21)NCc1ccc(F)cc1 -5.71%
CCc1cccc(C)c1NS(=O)(=O)c1c(C)nc2sccn2c1=O -6.49%
CCOC(=O)C1CCN(C(=O)CSc2n[nH]c(-c3ccc(F)cc3)n2)CC1 0.706%
COc1cccc(CNC(=O)c2c(C)oc3nc(C)nc(N4CCOCC4)c23)c1 0.325%
Cc1cc(C(=O)C(=O)Nc2nnc(C(C)C)s2)c(C)n1-c1ccccc1 0.266%
CCOC(=O)c1c(-c2ccccc2)csc1NC(=O)c1cc(-c2ccc(C)c(F)c2)on1 -6.79%
Cc1cccc(C(=O)Nc2ccc(OCc3cc(=O)n4ccsc4n3)cc2)c1 3.07%
CCN(CC)S(=O)(=O)c1ccc2c(c1)N(CC(=O)N1CCN(c3ccc(Cl)cc3)CC1)C(=O)CO2 1.81%
O=C(Cn1ccc2cc(S(=O)(=O)N3CCCCCC3)ccc21)NCCc1ccc(Cl)cc1 -13.3%
Cc1ccc(-n2c3c(cc(C(=O)Nc4cccc(Cl)c4)c2=O)C(=O)CC(C)(C)C3)cc1 -1.33%
CCN1CCN(C(=O)c2ccc3c(c2)N(Cc2ccccc2F)C(=O)c2ccccc2S3=O)CC1 (stereo unspecified) -4.13%
CCOc1ccccc1-c1nc(SCC(=O)c2ccc(OC)c(Br)c2)n[nH]1 -7.83%
Cc1ccc(Cl)cc1N1CCN(C(=O)CCCCCn2c(=O)[nH]c3ccccc3c2=O)CC1 -5.8%
CC(C)OC(=O)c1cccnc1SCC(=O)Nc1ccc(C(F)(F)F)cc1Cl 9.43%
Cc1cnc(=O)[nH]c1SCC(=O)Nc1nc2ccccc2s1 -0.41%
Cc1ccc2oc(-c3cccc(NC(=O)c4sc5c([N+](=O)[O-])cccc5c4Cl)c3)nc2c1 1.86%
O=c1c2sccc2n(Cc2cc(=O)n3ccccc3n2)c(=O)n1-c1cccc(C(F)(F)F)c1 -2.43%
CNS(=O)(=O)c1cc(-c2nnc(Nc3cc(C)ccc3C)c3ccccc23)ccc1C 3.37%
Cc1ccc(-c2nnc(SCC(=O)NCc3ccccc3)nc2-c2ccc(C)cc2)cc1 4.45%
CCOC(=O)c1cnc2ccccc2c1Nc1cccc(OC)c1 -0.234%
CCc1ccc(C(=O)NC(Cc2c[nH]c3ccccc23)C(=O)OCC(=O)c2ccc(Br)cc2)cc1 (stereo unspecified) 1.01%
Cc1cc2c(cc3c(SCC(=O)Nc4cccc(Cl)c4C)nnc(C)n32)o1 -9.67%
Cc1cc(-c2ccc(C)c(S(=O)(=O)Nc3cccc(C#N)c3)c2)on1 10.3%
CCOc1ccc(CCNC(=O)c2c(C)oc3ncn(C)c(=O)c23)cc1 1.03%
CC(C)CCOc1ccccc1Cn1c(=O)sc2ccccc21 -3.11%
Cc1ccccc1NS(=O)(=O)c1ccc2[nH]c3c(c2c1)CCCCC3 -17.4%
CCOC(=O)c1cc(-c2ccccc2)n(CCC(=O)Nc2nc3c(C)cccc3s2)c1C -6.19%
CCc1ccc(-n2c(=O)c3c(C)c(C(=O)N(C)C)sc3n(Cc3ccccc3F)c2=O)cc1 -8.42%
CCOc1ccccc1CNC(=O)CCn1ccc2cc(S(=O)(=O)N3CCCCC3)ccc21 -8.93%
Cn1c(=O)c2sccc2n2c(CCCC(=O)Nc3ccc(Oc4ccc(Cl)cc4)cc3)nnc12 0%
Cc1ccc(-c2cc3c(N4CCN(c5cc(C)ccc5C)CC4)nccn3n2)cc1 2.24%
CC(=O)N1c2c(cc(Br)cc2S(=O)(=O)N2CCN(c3ccccc3)CC2)CC1C (stereo unspecified) -12%
Cc1oc(-c2ccccc2Cl)nc1CS(=O)CC(=O)NCc1ccccc1Cl (stereo unspecified) 1.27%
COc1ccc(NC(=O)CN2CCN(CC(=O)Nc3ccccc3F)CC2)cc1OC -5.74%
O=S(=O)(c1ccc(F)cc1)N(Cc1nc(-c2ccccc2)no1)C1CCCCC1 -14%
CCOC(=O)c1ccc(NC(=O)COc2cccc3c(=O)n(C)ccc23)cc1 -6.62%
Cc1cc(Cl)ccc1OCC(=O)N1CCC(c2nc3ccccc3o2)CC1 -1.09%
Cc1ccc(CN(Cc2cccn2-c2nnc(N3CCCC3=O)s2)C(=O)Nc2ccc(F)cc2)cc1 -2.4%
O=C(COc1ccc(F)cc1)Nc1ccc(C(=O)OCc2cc(=O)n3nc(C4CC4)sc3n2)cc1 0%
CCOc1ccc(NC(=O)N2CCC(c3ccc(C)cc3)C2)cc1 (stereo unspecified) 0.67%
Cc1ccc(-n2nc(C(=O)Nc3ccc(Br)cc3C)c(=O)n(C)c2=O)cc1 -4.52%
CCOc1ccc(NC(=O)c2sc3nc4c(cc3c2N)CN(Cc2ccccc2)CC4)cc1 -6.43%
COc1ccccc1CNC(=O)CSCc1nc(-c2ccc(OC)c(OC)c2)oc1C -17.5%
COC(=O)c1ccc(NC(=O)C(=O)NCCc2csc(-c3ccc(C(F)(F)F)cc3)n2)cc1 -0.277%
CCCn1c2ccccc2c2cnn(CC(=O)NCc3ccc(OC)cc3)c(=O)c21 -1.89%

From PubChem BioAssay AID493208 (National Center for Advancing Translational Sciences (NCATS), 2011)
